Measurements from PMC3891853.
Residue numbers refer to the chain shown, from its start. No constants are given. Whether binding was seen depends on the method and setting. In cells and extracts the contact can be indirect. Some results given as binding are weak or reduced against the parent protein; the word gives no strength. Sequences can lack the tags named with a protein. Each block holds one molecule with its values, some of them ahead of it.

Chains of the proteins cited; added tags and fusions are not shown.
UniProt P11142: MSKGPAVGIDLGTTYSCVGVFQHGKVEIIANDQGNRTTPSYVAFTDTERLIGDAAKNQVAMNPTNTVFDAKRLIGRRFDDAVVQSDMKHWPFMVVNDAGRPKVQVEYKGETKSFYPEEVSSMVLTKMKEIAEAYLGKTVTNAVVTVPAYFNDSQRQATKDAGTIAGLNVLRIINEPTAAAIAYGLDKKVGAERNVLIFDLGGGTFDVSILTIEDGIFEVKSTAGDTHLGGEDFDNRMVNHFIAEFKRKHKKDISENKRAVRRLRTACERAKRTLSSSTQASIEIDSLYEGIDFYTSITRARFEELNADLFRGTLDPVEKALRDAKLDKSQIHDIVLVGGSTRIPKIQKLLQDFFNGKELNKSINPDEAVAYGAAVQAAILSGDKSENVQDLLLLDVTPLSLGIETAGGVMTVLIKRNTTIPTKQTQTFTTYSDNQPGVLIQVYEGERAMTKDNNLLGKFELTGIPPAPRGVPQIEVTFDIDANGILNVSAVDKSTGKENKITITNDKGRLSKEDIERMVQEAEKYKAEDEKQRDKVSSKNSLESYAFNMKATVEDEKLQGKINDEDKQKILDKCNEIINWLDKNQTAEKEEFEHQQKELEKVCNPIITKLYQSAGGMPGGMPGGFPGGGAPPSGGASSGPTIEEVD
UniProt P08235: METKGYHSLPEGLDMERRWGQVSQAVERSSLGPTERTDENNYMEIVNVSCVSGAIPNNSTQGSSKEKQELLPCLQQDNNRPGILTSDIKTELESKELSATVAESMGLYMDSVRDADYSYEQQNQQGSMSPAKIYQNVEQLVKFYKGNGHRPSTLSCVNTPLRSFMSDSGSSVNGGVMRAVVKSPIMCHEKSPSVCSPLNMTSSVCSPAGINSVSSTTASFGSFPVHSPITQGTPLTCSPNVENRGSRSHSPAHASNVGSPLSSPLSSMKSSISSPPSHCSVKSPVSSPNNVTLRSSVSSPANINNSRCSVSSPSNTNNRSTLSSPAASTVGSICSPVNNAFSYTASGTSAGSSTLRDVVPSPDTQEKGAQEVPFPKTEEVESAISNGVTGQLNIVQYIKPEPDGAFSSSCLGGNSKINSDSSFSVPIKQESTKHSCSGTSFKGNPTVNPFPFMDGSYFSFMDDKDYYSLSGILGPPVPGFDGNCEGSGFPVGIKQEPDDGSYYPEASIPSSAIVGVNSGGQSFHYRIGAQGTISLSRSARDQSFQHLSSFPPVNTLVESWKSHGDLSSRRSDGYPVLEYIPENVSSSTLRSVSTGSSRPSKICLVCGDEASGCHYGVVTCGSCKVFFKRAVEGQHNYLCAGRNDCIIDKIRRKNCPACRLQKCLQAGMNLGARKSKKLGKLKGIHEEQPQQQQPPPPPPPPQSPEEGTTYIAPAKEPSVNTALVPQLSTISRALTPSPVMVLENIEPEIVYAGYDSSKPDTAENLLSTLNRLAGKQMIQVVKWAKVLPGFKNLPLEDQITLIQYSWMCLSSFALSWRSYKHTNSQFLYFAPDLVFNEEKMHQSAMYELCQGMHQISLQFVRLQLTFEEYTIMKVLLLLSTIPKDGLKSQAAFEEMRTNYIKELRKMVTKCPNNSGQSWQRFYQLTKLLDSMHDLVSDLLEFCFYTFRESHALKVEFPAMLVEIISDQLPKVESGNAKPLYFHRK
UniProt P04150: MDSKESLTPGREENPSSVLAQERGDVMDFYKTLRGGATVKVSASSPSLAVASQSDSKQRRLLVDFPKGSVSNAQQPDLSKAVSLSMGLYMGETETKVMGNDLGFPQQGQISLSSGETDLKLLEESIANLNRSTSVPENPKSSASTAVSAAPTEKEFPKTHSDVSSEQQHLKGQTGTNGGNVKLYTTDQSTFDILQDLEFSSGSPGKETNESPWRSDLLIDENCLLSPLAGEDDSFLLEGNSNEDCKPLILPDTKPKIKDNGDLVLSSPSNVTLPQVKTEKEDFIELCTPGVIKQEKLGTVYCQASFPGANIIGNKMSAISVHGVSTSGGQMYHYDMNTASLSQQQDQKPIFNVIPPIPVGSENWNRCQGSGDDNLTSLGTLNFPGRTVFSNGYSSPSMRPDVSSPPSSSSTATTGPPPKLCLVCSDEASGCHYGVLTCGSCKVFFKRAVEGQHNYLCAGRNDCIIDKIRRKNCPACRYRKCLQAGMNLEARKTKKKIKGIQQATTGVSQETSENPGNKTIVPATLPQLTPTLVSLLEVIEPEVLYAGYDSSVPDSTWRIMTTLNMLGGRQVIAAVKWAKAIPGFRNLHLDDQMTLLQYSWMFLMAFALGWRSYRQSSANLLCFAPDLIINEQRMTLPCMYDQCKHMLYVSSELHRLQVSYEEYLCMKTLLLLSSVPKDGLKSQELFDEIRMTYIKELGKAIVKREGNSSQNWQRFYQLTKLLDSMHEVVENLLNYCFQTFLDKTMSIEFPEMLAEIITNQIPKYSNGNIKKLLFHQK
UniProt Q9UNE7: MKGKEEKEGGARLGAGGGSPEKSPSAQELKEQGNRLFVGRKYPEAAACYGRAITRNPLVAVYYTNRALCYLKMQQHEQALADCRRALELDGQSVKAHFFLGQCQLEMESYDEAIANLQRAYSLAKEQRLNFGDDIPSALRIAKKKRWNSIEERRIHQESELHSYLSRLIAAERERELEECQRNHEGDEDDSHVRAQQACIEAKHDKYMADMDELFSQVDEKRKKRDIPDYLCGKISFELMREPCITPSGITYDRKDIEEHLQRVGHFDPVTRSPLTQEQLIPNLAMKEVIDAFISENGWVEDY
UniProt P0DMV8: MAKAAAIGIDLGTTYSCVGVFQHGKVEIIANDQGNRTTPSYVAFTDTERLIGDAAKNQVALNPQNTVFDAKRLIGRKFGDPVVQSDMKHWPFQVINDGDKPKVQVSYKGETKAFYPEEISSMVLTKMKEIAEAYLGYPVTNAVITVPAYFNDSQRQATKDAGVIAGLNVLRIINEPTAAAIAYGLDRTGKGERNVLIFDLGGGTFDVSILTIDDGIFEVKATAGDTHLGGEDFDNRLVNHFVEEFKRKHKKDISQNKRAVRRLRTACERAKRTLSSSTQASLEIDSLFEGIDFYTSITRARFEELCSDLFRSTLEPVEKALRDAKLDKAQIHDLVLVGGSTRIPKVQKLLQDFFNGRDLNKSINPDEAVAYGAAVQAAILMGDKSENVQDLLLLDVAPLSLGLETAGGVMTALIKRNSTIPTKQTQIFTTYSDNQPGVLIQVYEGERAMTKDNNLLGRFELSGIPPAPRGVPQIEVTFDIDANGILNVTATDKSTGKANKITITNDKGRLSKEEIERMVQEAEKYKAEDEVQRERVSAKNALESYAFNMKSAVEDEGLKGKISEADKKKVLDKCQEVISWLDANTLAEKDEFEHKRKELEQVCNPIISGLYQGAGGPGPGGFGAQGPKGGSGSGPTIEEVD
UniProt P25685: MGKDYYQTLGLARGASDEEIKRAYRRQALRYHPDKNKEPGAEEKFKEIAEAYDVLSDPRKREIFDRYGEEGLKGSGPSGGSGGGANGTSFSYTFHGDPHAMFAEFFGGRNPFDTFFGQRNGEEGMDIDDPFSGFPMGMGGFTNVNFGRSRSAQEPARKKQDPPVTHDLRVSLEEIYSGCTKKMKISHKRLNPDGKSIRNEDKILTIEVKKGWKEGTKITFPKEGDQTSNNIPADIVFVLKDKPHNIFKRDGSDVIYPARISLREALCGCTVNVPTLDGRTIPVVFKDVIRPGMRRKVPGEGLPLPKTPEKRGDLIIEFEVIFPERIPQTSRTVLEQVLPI
UniProt P10275: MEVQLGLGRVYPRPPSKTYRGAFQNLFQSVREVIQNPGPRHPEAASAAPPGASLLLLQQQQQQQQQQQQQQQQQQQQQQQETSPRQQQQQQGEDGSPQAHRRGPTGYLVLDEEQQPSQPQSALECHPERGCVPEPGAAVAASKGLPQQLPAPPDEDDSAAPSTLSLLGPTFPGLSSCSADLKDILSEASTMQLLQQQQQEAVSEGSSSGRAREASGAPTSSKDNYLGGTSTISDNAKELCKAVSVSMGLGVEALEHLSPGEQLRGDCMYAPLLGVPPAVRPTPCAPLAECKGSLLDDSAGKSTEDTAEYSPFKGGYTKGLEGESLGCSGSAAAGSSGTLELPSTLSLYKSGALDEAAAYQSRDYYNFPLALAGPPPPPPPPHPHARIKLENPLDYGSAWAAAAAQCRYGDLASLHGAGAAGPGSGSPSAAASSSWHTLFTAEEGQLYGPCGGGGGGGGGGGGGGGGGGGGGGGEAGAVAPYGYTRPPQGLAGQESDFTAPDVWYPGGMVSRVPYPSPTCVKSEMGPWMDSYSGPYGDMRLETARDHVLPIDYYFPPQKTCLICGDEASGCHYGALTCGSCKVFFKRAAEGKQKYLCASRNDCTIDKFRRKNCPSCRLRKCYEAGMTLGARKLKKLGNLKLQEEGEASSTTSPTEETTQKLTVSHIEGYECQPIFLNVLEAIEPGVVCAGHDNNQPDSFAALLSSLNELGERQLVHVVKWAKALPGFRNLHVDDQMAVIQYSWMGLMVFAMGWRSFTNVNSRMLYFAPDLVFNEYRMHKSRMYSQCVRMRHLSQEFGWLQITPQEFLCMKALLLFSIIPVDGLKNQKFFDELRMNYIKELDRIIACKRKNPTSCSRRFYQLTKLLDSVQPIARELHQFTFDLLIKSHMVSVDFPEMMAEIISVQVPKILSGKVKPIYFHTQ

Legend:
[1] = target: T1, Flag-tagged HspBP1_mut (A137R, K249A) (human) (UniProt Q9NZL4); test: co-IP; Flag-tagged NEF precipitated with anti-Flag M2 agarose from 1.5 mg HEK293 cellular extract in 1 ml; no ATP added; eluted with Flag-peptide; Western blot and colloidal Coomassie
T1 sequence: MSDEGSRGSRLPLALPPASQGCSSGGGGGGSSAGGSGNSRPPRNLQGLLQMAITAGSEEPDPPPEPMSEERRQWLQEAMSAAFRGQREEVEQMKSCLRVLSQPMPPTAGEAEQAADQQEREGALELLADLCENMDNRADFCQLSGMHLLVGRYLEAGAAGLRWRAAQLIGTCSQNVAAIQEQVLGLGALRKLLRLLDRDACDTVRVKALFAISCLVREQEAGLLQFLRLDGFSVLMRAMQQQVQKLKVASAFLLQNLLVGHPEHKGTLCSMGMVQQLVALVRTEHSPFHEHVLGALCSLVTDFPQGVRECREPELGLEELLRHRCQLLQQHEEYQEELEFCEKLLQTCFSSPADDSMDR

[2] = target: T2, Flag-tagged wild-type Hsp70 binding protein 1 (HspBP1) (human) (UniProt Q9NZL4); test: as above
T2 sequence: T1 sequence with R137A, A249K

[3] = target: Hsc70, in vitro translated and labeled (UniProt P11142); test: pull-down; same chaperone-binding assay; 7 µM purified NEF pre-incubated for 15 min at room temperature with in vitro translated Hsc70 in reticulocyte lysate before GR-LBD agarose was added; read-out is Hsc70 bound to GR-LBD; only the binder purified

- binding [1]: no binding
Molecule: HA-tagged mineralocorticoid receptor (MR) (from UniProt P08235 1-984)

- binding [1]: no binding
Molecule: HA-tagged glucocorticoid receptor (GR) (from UniProt P04150 1-777)

- binding [1]: binds weakly
- binding [2]: binds
Molecule: CHIP (E3-ligase), endogenous (from UniProt Q9UNE7 1-303) (enzyme)

- binding [1]: binds weakly
- binding [2]: binds
Molecule: inducible Hsp70, endogenous (from UniProt P0DMV8 1-641)

- binding [2]: no binding
Molecule: Hsp40/Hdj1, endogenous (from UniProt P25685 1-340)

- binding [1]: no binding
Molecule: HA-tagged androgen receptor (AR) (from UniProt P10275 1-920)

- binding [2]: binds
Molecule: Hsc70 (constitutively expressed heat shock protein 70 kilodalton), endogenous (from UniProt P11142 1-646)

- binding [3]: binds
B1: purified wild-type HspBP1 (His-tagged) (protein, UniProt Q9NZL4 1-359)
chain: T1 sequence with R137A, A249K
